± gives the standard deviation of the averaged measurements. Some of the results follow.
Tested on: PfAP2-EXP AP2 domain (GST-tagged)
Test: gcPBM binding intensity (ln(normalized median fluorescence intensity)); higher = stronger DNA binding
How it was run: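 The highest Masliner-normalised natural-log median intensity across replicate spots of either probe orientation is reported as binding intensity. GST-tagged P. falciparum DNA-binding domains expressed in E. coli were applied for 1 h to an Agilent 4 × 180k array of primer-extended double-stranded 36-bp intergenic genomic probes plus negative controls, and bound protein was detected with Alexa488 anti-GST antibody and scanned at 488 nm.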

Sequence	gcPBM binding intensity (ln)
TATGGTAAATACAACACACACACATATGTATTTATA [CACACA_site4666]	8.69 ± 0.43
TGGATATAAAACAACGTGCACTTGGTTGATTTTAAA [GTGCAC_site9900]	8.68 ± 0.014
ATTTATTTATATAATACACACAAATATCTTAATTAA [CACACA_site3993]	8.15 ± 0.34
TGTGCAAGATTTTTCTGTACATATATATAAATATAT [XGTACX_site1796]	8.08 ± 0.34
AAATATTCTTGTTTAATACACACTGTAGTATTATAT [CACACA_site433]	8.62 ± 0.36
TTAAATAGATAAACTAAACACACAAAAAAAAAAAAA [CACACA_site8308]	8.38 ± 0.46
TAAATACTAATATGTACACACATATAGATATAGATT [CACACA_site7247]	8.21 ± 0.3
GAATAAGATAGATATACACACCATTATAAATATAAA [CACACA_site5392]	8.5 ± 0.51
GCTAAAAGTATATGCACACACATATATATGCACATA [CACACA_site1635]	8.87 ± 0.028
TTTTGTACTTCATGCGTGCACAGAAATATATTATAT	9.245 ± 0.078
GCTTTTGTCATGTGCACACACGTATATATTATATAT [CACACA_site6146]	9.45 ± 0.35
ATTTATATTTGTATTTGTACTTATATTTATATTTAT [XGTACX_site1540]	8.66 ± 0.47
AAAAAGGTTAAGGTAGTGCATAATAAAGAATATTAA	8.78 ± 0.28
ATCATTCTTCATTTGTCACACATGATAAAAATATAT [CACACA_site4953]	8.84 ± 0.45
CTATTTTGGATGTGTACACATATATATATTTATATT [CACACA_site5706]	8.93 ± 0.11
CTATTATAATATTTTACACACCATGTAAAATATATA [CACACA_site3206]	8.39 ± 0.38
CATTAACATTTTATTACACACAATAATTTATAAGTA [CACACA_site4083]	8.29 ± 0.38
TTTTTTAAGTAATGAAATGATTTTCTTATAGAATAA [GTGCAC_negctrl_site395]	7.84 ± 0.47
ATATATATATATATATGTACATATTTCTCCATTTTT [XGTACX_site2869]	10.1 ± 0.23

Sequence	gcPBM binding intensity (ln)
GTTTTTTATAATTGTAGTACAAGAAGATATTTTTAT [XGTACX_site5443]	8.55 ± 0.35
TGCAATTGTAAAGGCGCACACATATATATATATATA [CACACA_site4894]	10.1 ± 0.34
GCATTGTCCATGCGCACACACTACTAGAATAATATG [CACACA_site5932]	8.68 ± 0.3
AAACCGTGGGAGCACACACACACACCGACACATATA [CACACA_site4338]	8.68 ± 0.51
CATATTTTTATAAATTGTACGTATATTATATATATA [XGTACX_site1816]	8.775 ± 0.035
CCATCTAAACACAACTCGAGTTGGATGTGTGAACTT [XGTACX_negctrl_site83]	8.57 ± 0.45
AATTAATGGGTACATACACACATATATACCTACATA [CACACA_site4572]	8.38 ± 0.32
ATCAAAAGAAAACACACACACATACAGATATATATA [CACACA_site5974]	8.73 ± 0.43
TCCATTTATAAATTAGCATGCAATCTATGTCTGATA [TGCATGCA_site1045]	9.09 ± 0.29
ATATATCAATATAAAAGTACAAACAAAAAATAATCA [XGTACX_site7559]	8.87 ± 0.38
GATATATACTCCATCACACACCAAAAAGAAAAAAGA [CACACA_site7242]	8.64 ± 0.58
AGCAACCTGAAAAAATTACTCTTTCTTAAACAAATT [XGTACX_negctrl_site266]	7.99 ± 0.45
ATACAAGAATTAAACACACACAAAATATAAATTCTT [CACACA_site3005]	8.71 ± 0.45
CACAGACACGGACACACACACACACCCATATATATA [CACACA_site4354]	8.78 ± 0.31
TTAAGGATTAAGGTGTGTACATATAAATATTATATA [XGTACX_site7532]	8.51 ± 0.31
ACCTGTAAAAATGTTTATATATATATATATATATAT [CACACA_negctrl_site1500]	10.3 ± 0.37
TGTTTATTCTTTAAATATTATTCAAATACTACAAGT [CACACA_negctrl_site746]	8.16 ± 0.4
AAAAAAAAAAAAAATTGTACATAATAAAAATATGGA [XGTACX_site3189]	8.4 ± 0.46
TATATATATAAGTGCACACTGAACCAAGAAAATTAT [CACACA_site3008]	9.26 ± 0.28

Sequence	gcPBM binding intensity (ln)
CGGCACATTATATATACACACATATAAATAAATACA [CACACA_site4477]	8.6 ± 0.38
GGATTGATAAGTGGTACACACATATAGATTATAGAT [CACACA_site7367]	8.76 ± 0.4
ATTTATATAAAGAATGTACACACAGAAATGCACCCA [CACACA_site8715]	9.2 ± 0.2
AATATTAAATGAAAAAGTACAAACAGTCCTATATTA [XGTACX_site1926]	8.23 ± 0.2
AAAAAAAAAAAACATACACACAAATAAATACATACA [CACACA_site6073]	8.61 ± 0.63
TAAATATATATATGTGTGCACTTCTTCATTTTAATA [GTGCAC_site9537]	9.09 ± 0.26
CGTATGCACAAATTATGTACTTATATATATATATAT [XGTACX_site2348]	10.1 ± 0.36
TATTCGAAAATTATTCAAATTATCTAACATATTATT [TGCATGCA_negctrl_site70]	8.09 ± 0.4
AAAAATAAAATAATATGTACATATATAATATATATA [XGTACX_site4786]	8.67 ± 0.13
AATTGGAAACAACCAAAAAAATTAAAGTTGTATCCT [CACACA_negctrl_site565]	8.23 ± 0.37
TAATTTTTTAGACACACACACATATAAATATAAATA [CACACA_site6195]	8.74 ± 0.3
TTGTATATTATATGTACACACAATAAGTTAATATAA [CACACA_site909]	8.41 ± 0.3
ATAATATATTTTTGAACACACAATATAGATTTATAT [CACACA_site7857]	8.26 ± 0.48
TTCCTTTGTCCTAACTGTACTCAAATTTATTAGTGG [XGTACX_site226]	8.96 ± 0.43
TAAATACAAAAATGTACACACATATATATATTTTTA [CACACA_site3503]	8.2 ± 0.27
CGGCACATTATATATACACACATATAAATATATACA [CACACA_site8086]	8.39 ± 0.37
TAAATTTTAATATGCACACAAAATGTTATATTAAAA [CACACA_site4366]	8.14 ± 0.26
TATATAAATATATATACACACAAAAAAAAAAAAAAA [CACACA_site1406]	8.36 ± 0.52
TAAATGAAAACCATTAGTACTTATACTGATAAATGT [XGTACX_site763]	8.34 ± 0.4
